Assay results reported in PubChem BioAssay AID588647 (Sanford-Burnham Center for Chemical Genomics, 2011).
Some entries of the source have several records that differ or are many. This list holds those alone. An entry can have further records. Values given together are repeated measurements across runs, samples, wells, individuals or studies. Brackets tell where a record comes from. The letters are not those of the source and start again with each entry.

The compounds below were run against intestinal alkaline phosphatase (Mus musculus) (assay: mouse IAP inhibition by analogs – biochemical, luminescence, set 2, SAR follow-up (AID 588647)). Settings: purified mouse IAP, luminescent substrate read-out.

Row | SMILES | IC50
1 | COc1ccc(CNC(=O)CCCNS(=O)(=O)c2ccc3[nH]c(=O)oc3c2)c(OC)c1 | 3.6 µM [sample A] and 37 µM [sample B]
2 | O=C(CCNS(=O)(=O)c1ccc2[nH]c(=O)oc2c1)NCCc1ccc2c(c1)OCO2 | 5 µM [sample A] and 52 µM [sample B] and 19 µM [sample C]
3 | O=C(CCNS(=O)(=O)c1ccc2[nH]c(=O)oc2c1)NCc1ccc2c(c1)OCO2 | 11 µM [sample A] and 2.6 µM [sample B] and 44 µM [sample C]
